The text below walks through data of article PMC4592949 (eLife, 2015).

This data set deals with the molecule itself. As to the kind of experiment: SEC; gel filtration of recombinant FTH1-only complexes on a Superose 6 column; main peak at about 14 ml, apparent 450 kDa. On the technique in general: Size exclusion chromatography separates by hydrodynamic size, large species first.

B1: recombinant FTH1 R23A-only ferritin complex (complex)
chain: not shown
notes: ferritin heavy chain FTH1, point mutant; Forms 450 kDa complexes like the wild type; also called R23A FTH1-only complexes; source: E. coli, purified (Ni-IMAC, Senp1 cleavage, Q-sepharose, Superose 6 gel filtration); not shown: His6-Sumo, N-terminal, cleaved; copies: 24
B1: the binding result was “binds”.
